Test results: the antibiotic and cytotoxicity screens of Wong et al. (2023)
Some of the results follow.

Each molecule was assayed on S. aureus RN4220 (assay: growth inhibition call (relative growth <= 0.2)). Details: 50 µM.

Growth inhibition call, inactive:
C[C@@H]1CN([C@H](C)CO)C(=O)c2cc(NC(=O)Nc3ccc4c(c3)OCO4)ccc2O[C@@H]1CN(C)C(=O)Nc1cccc2ccccc12
CN1C(=O)c2cc(NC(=O)C3CCCC3)ccc2OC[C@@H]2O[C@H](CC(=O)NCCc3ccncc3)CC[C@H]21
COc1ccccc1C#Cc1ccc2c(c1)O[C@H](CN(C)Cc1cncnc1)[C@H](C)CN([C@@H](C)CO)S2(=O)=O
C[C@@H]1CN([C@@H](C)CO)C(=O)c2cccc(NC(=O)C3CCOCC3)c2O[C@H]1CN(C)S(=O)(=O)c1ccc(F)cc1
CC(C)N1C[C@H](C)[C@@H](CN(C)Cc2ccc(Oc3ccccc3)cc2)Oc2c(NC(=O)c3ccccn3)cccc2C1=O
COC1=C(OC)C(=O)C(CCCCCCCCCC[P+](c2ccccc2)(c2ccccc2)c2ccccc2)=C(C)C1=O
CC(=O)N1[C@H](CO)[C@H](c2ccccc2)[C@H]1CNC(=O)CN1CCOCC1
Cc1noc(C)c1S(=O)(=O)Nc1ccc2c(c1)C(=O)N([C@@H](C)CO)C[C@H](C)[C@H](CN(C)S(=O)(=O)c1c(C)noc1C)O2
C[C@@H]1CCCCO[C@@H](CN(C)Cc2ccc(Cl)c(Cl)c2)[C@@H](C)CN([C@H](C)CO)C(=O)c2cc(NS(=O)(=O)c3cn(C)cn3)ccc2O1
C[C@H](CO)N1C[C@H](C)[C@H](CN(C)S(=O)(=O)c2ccc(Cl)cc2)OCCCC[C@H](C)Oc2ccc(NC(=O)Nc3cccc4ccccc34)cc2C1=O
COc1ccc(NC(=O)Nc2ccc3c(c2)CC(=O)N([C@H](C)CO)C[C@H](C)[C@@H](CN(C)S(C)(=O)=O)O3)cc1
O=C(C[C@@H]1CC[C@@H]2[C@H](COC[C@H](O)CN2S(=O)(=O)c2ccccc2)O1)NCc1ccncn1
COc1ccc(S(=O)(=O)Nc2cccc3c2O[C@H](CN(C)C(=O)NC(C)C)[C@H](C)CN([C@H](C)CO)C3=O)cc1
CC[C@@H](N)CC12CC3CC(CC(C3)C1)C2
CC(C)N(C)C(=O)c1cccc(NC(=O)c2ccncc2)c1OCCCN(C)Cc1ccc(Oc2ccccc2)cc1
C[C@@H]1CCCCO[C@@H](CN(C)C(=O)Nc2cccc3ccccc23)[C@@H](C)CN([C@H](C)CO)C(=O)c2cc(NC(=O)c3ccccc3)ccc2O1
C[C@@H]1CN([C@H](C)CO)C(=O)c2cc(NC(=O)Nc3ccccc3)ccc2O[C@@H](C)CCCCO[C@H]1CN(C)C(=O)C1CCCCC1
C[C@@H]1CN([C@H](C)CO)C(=O)c2c(c3ccccc3n2C)-c2ccccc2CO[C@H]1CN(C)S(=O)(=O)c1ccc(C(F)(F)F)cc1
O=C(C[C@H]1CC[C@H](NS(=O)(=O)c2ccc(F)cc2)[C@@H](CO)O1)N1CCC(Cc2ccccc2)CC1
C[C@@H]1CCCCO[C@H](CN(C)S(=O)(=O)c2ccc(Cl)cc2)[C@H](C)CN([C@@H](C)CO)C(=O)c2cc(NC(=O)Nc3ccc4c(c3)OCO4)ccc2O1
C[C@@H]1CCCCO[C@@H](CN(C)C(=O)Nc2ccc(F)cc2)[C@@H](C)CN([C@@H](C)CO)C(=O)c2cc(NC(=O)Nc3ccccc3)ccc2O1
C[C@H]1CN([C@@H](C)CO)C(=O)Cc2cc(NS(=O)(=O)c3ccc(F)cc3)ccc2O[C@H]1CN(C)Cc1ccc(Oc2ccccc2)cc1
C[C@H](CO)N1C[C@H](C)[C@@H](CN(C)S(=O)(=O)c2ccccc2C#N)OCc2cnnn2CCCC1=O
COc1cccc(C#Cc2cnc3c(c2)C(=O)N([C@H](C)CO)C[C@H](C)[C@H](CN(C)C(=O)C2CCC2)O3)c1
COc1ccc(NC(=O)N(C)C[C@H]2OCCCC[C@@H](C)Oc3ccc(NS(=O)(=O)c4cccs4)cc3C(=O)N([C@@H](C)CO)C[C@H]2C)cc1
CCCC(=O)Nc1ccc2c(c1)OC[C@H](C)N(S(=O)(=O)c1cn(C)cn1)C[C@@H](C)[C@@H](OC)CN(C)C2=O
O=C(CN1CCOCC1)N[C@H]1CC[C@H](CCn2cc(C3CC3)nn2)O[C@H]1CO
C[C@H](CO)N1C[C@H](C)[C@H](CN(C)S(C)(=O)=O)OCCCC[C@H](C)Oc2ccc(NC(=O)CCCN(C)C)cc2C1=O
Cc1noc(C)c1S(=O)(=O)N(C)C[C@H]1Oc2ccc(NC(=O)C3CC3)cc2CC(=O)N([C@@H](C)CO)C[C@@H]1C
Cc1noc(C)c1NC(=O)Nc1ccc2c(c1)C(=O)N([C@H](C)CO)C[C@@H](C)[C@@H](CN(C)Cc1ccccc1)OCCCC[C@@H](C)O2
C[C@@H]1CN([C@@H](C)CO)C(=O)c2cc(NC(=O)CCCCCC(=O)Nc3ccccc3N)ccc2O[C@@H]1CN(C)S(=O)(=O)c1cn(C)cn1
COc1ccccc1/C=C/C=C1/C(=O)N(c2cc(C)cc(C)c2)[C@@H](c2cccc([N+](=O)[O-])c2)S1(=O)=O
CN(C)CCCNC(=O)C[C@@H]1CC[C@H]2[C@@H](COc3ccc(NC(=O)c4ccc5c(c4)OCO5)cc3C(=O)N2C)O1
O=C(C[C@@H]1C=C[C@@H](NC(=O)CN2CCOCC2)[C@@H](CO)O1)NCCc1ccncc1
COCC(=O)N(C)C[C@@H]1Oc2cc(C#CCC3CCCC3)ccc2S(=O)(=O)N([C@H](C)CO)C[C@H]1C
C[C@@H]1CCCCO[C@@H](CN(C)Cc2ccc(C(F)(F)F)cc2)[C@@H](C)CN([C@H](C)CO)C(=O)c2cc(NC(=O)CCC(F)(F)F)ccc2O1
COc1ccc(NC(=O)Nc2ccc3c(c2)CC(=O)N([C@@H](C)CO)C[C@H](C)[C@H](CN(C)Cc2ccc(C(F)(F)F)cc2)O3)cc1
C[C@@H]1CCCCO[C@@H](CN(C)C(=O)C2CCCCC2)[C@H](C)CN([C@@H](C)CO)C(=O)c2cc(NS(=O)(=O)c3ccc(Cl)cc3)ccc2O1
C[C@@H]1CN([C@H](C)CO)C(=O)c2cc(Br)cnc2O[C@@H]1CN(C)S(=O)(=O)c1ccc(F)cc1
C[C@@H]1CCCCO[C@@H](CN(C)Cc2ccc(C(F)(F)F)cc2)[C@@H](C)CN([C@@H](C)CO)C(=O)c2cc(NS(=O)(=O)c3ccc(Cl)cc3)ccc2O1
